Structures are written as SMILES. Some of the results follow.

The subject of the first assay is HSkMC (human skeletal muscle cells). Briefly: cytotoxicity call (relative viability < 0.9). The settings on record: 10 µM.
For `C[C@@H]1CN([C@@H](C)CO)C(=O)c2cccc(NC(=O)c3nc4ccccc4s3)c2O[C@H]1CN(C)Cc1ccc(C(F)(F)F)cc1`, the cytotoxicity call is “inactive”. On the same count and under the same terms, to `NCCCCCCNC(=O)[C@H]1C[C@H]2C(=O)N[C@@H](Cc3ccccc3)C(=O)N2[C@H]1c1cccc(OCCO)c1` belongs “inactive”; to `COc1ccc(CN(C)C[C@H]2Oc3ccc(NS(=O)(=O)c4c(C)noc4C)cc3C(=O)N([C@H](C)CO)C[C@H]2C)cc1`, “inactive”; to `Cc1noc(C)c1NC(=O)Nc1ccc2c(c1)C(=O)N([C@H](C)CO)C[C@@H](C)[C@H](CN(C)C(=O)Nc1cccc3ccccc13)O2`, “inactive”.

As for `COc1ccc(CCc2nc3cc(-c4c(C)noc4C)ccc3n2C[C@H](C)N2CCOCC2)cc1Cl`, the cytotoxicity call is “inactive”. On to `c1ccc(Cn2c(-c3ccc(OC[C@H](C4CCNCC4)n4c(-c5ccccc5)nc5ccccc54)cc3)nc3ccccc32)cc1`, for which the cytotoxicity call is “active”. In the case of `O=C(CN1CCOCC1)N[C@H]1CC[C@H](CCn2cc(C3CC3)nn2)O[C@@H]1CO`, the cytotoxicity call is “inactive”. For the compound `C[C@@H]1CCCCO[C@H](CN(C)C(=O)c2ccccc2)[C@H](C)CN([C@@H](C)CO)C(=O)c2cc(NC(=O)Nc3ccccc3)ccc2O1`, the cytotoxicity call is “inactive”.

As to `C[C@@H]1CCCCO[C@H](CN(C)C(=O)Cc2ccccc2)[C@@H](C)CN([C@@H](C)CO)C(=O)c2cc(NC(=O)Nc3ccc(C(F)(F)F)cc3)ccc2O1`, the cytotoxicity call is “inactive”. On the same count and under the same terms, to `NNCCc1ccccc1.O=S(=O)(O)O` belongs “inactive”; to `C[C@@H]1CN([C@@H](C)CO)C(=O)c2cc(NS(=O)(=O)c3cccs3)ccc2O[C@@H]1CN(C)S(=O)(=O)c1cccs1`, “inactive”.

The subject of another assay is HepG2. Briefly: cytotoxicity call (relative viability < 0.9). The settings on record: 10 µM.
Turning to `Cc1ccc(S(=O)(=O)N(C)C[C@H]2Oc3ccc(NC(=O)CCN4CCOCC4)cc3CC(=O)N([C@@H](C)CO)C[C@H]2C)cc1`, the cytotoxicity call is “inactive”.

`COc1ccc(CN(C)C[C@H]2OCCCC[C@@H](C)Oc3ccc(NS(=O)(=O)c4ccc(C)cc4)cc3C(=O)N([C@H](C)CO)C[C@@H]2C)cc1`: the cytotoxicity call was “inactive”.

Regarding `CCCN(CCC)S(=O)(=O)c1ccc(C(=O)N(c2cccc(SC)c2)[C@H]2OC(=O)c3ccccc32)cc1`, the cytotoxicity call is “inactive”. On the same count and under the same terms, to `COc1ccc(S(=O)(=O)Nc2cccc3c2O[C@H](CN(C)S(=O)(=O)c2cn(C)cn2)[C@H](C)CN([C@@H](C)CO)C3=O)cc1` belongs “inactive”; to `C[C@H](CO)N1C[C@H](C)[C@H](CN(C)Cc2ccc(Oc3ccccc3)cc2)Oc2c(NS(=O)(=O)c3ccc(Cl)cc3)cccc2C1=O`, “inactive”. The same measure, in the same setting: to `O=C(C[C@H]1CC[C@@H]2[C@H](COC[C@H](O)CN2Cc2cc(F)ccc2F)O1)N[C@@H]1CCN(Cc2ccccc2)C1` belongs “inactive”; to `C[C@@H]1CN([C@H](C)CO)C(=O)c2cc(NC(=O)Nc3ccc4c(c3)OCO4)ccc2O[C@@H](C)CCCCO[C@H]1CN(C)S(=O)(=O)c1ccccc1`, “inactive”; to `C[C@@H]1CN([C@@H](C)CO)C(=O)c2cccc(NC(=O)c3cnccn3)c2O[C@H]1CN(C)S(C)(=O)=O`, “inactive”. `C[C@H]1CCCCO[C@H](CN(C)CC2CC2)[C@@H](C)CN([C@@H](C)CO)C(=O)c2cc(NC(=O)Nc3ccccc3)ccc2O1`: the cytotoxicity call is “inactive”. Regarding `Cc1noc(C)c1S(=O)(=O)Nc1ccc2c(c1)C(=O)N([C@H](C)CO)C[C@@H](C)[C@H](CN(C)Cc1ccncc1)O2`, the cytotoxicity call was “inactive”. On the same count and under the same terms, to `Cc1cc(C(=O)Nc2cccc3c2O[C@H](CN(C)C(=O)NC(C)C)[C@@H](C)CN([C@H](C)CO)C3=O)n(C)n1` belongs “inactive”.

Turning to `C[C@@H](NC(=O)N(C)C[C@H]1OCc2ccccc2-c2c(n(C)c3ccccc23)C(=O)N([C@@H](C)CO)C[C@@H]1C)c1ccccc1`, the cytotoxicity call is “inactive”. The same measure, in the same setting: to `C[C@@H]1CCCCO[C@@H](CN(C)Cc2ccncc2)[C@H](C)CN([C@H](C)CO)C(=O)c2cc(NC(=O)Cc3ccccc3)ccc2O1` belongs “inactive”. The same measure, in the same setting: to `C[C@@H](O[C@H]1OCCN(Cc2n[nH]nc2CN(C)C)[C@H]1c1ccc(F)cc1)c1cc(C(F)(F)F)cc(C(F)(F)F)c1` belongs “active”. Still for that read-out and setting: to `COc1ccc2c(c1)OCC(=Cc1ccc(OC)c(O)c1)C2=O` belongs “active”; to `CC(C)NC(=O)N(C)C[C@H]1Oc2c(NS(=O)(=O)c3ccccc3)cccc2C(=O)N([C@H](C)CO)C[C@H]1C`, “active”.

On to `Cc1ccc(S(=O)(=O)N(C)C[C@H]2Oc3c(NC(=O)Nc4cccc5ccccc45)cccc3C(=O)N([C@H](C)CO)C[C@H]2C)cc1`, for which the cytotoxicity call was “inactive”. Still for that read-out and setting: to `CN1C(=O)c2cc(NC(=O)Cc3cccs3)ccc2OC[C@H]2O[C@H](CC(=O)NCc3ccc(-c4ccccc4)cc3)CC[C@@H]21` belongs “inactive”; to `CO[C@@H]1[C@H](N(C)C(=O)c2ccccc2)C[C@H]2O[C@]1(C)n1c3ccccc3c3c4c(c5c6ccccc6n2c5c31)C(=O)NC4`, “active”; to `Cc1noc(C)c1S(=O)(=O)N(C)C[C@@H]1Oc2c(NS(=O)(=O)c3cn(C)cn3)cccc2C(=O)N([C@H](C)CO)C[C@@H]1C`, “inactive”.

Regarding `C[C@@H]1CCCCO[C@H](CN(C)C(=O)Nc2ccccc2)[C@H](C)CN([C@@H](C)CO)C(=O)c2cc(NC(=O)Cc3ccccc3)ccc2O1`, the cytotoxicity call is “inactive”.

Consider `C[C@@H]1CCCCO[C@H](CN(C)S(C)(=O)=O)[C@@H](C)CN([C@H](C)CO)C(=O)c2cc(NC(=O)Nc3cccc4ccccc34)ccc2O1`, for which the cytotoxicity call was “inactive”.

As for `C[C@@H]1CN([C@H](C)CO)S(=O)(=O)c2ccc(C#CCN(C)C)cc2O[C@H]1CN(C)C`, the cytotoxicity call was “inactive”. Same read-out and setting: to `C[C@@H]1CCCCO[C@@H](CN(C)C(=O)Nc2ccccc2)[C@H](C)CN([C@@H](C)CO)C(=O)c2cc(NC(=O)Nc3ccc(C(F)(F)F)cc3)ccc2O1` belongs “inactive”; to `O=C(C[C@@H]1CC[C@@H]2[C@H](COC[C@H](O)CN2C(=O)c2ccccc2)O1)N1CCOCC1`, “inactive”.

For `C[C@H]1CN([C@@H](C)CO)C(=O)Cc2cc(NC(=O)c3ccncc3)ccc2O[C@H]1CN(C)S(=O)(=O)c1ccccc1`, the cytotoxicity call was “inactive”. Same read-out and setting: to `COc1ccc(C#Cc2cnc3c(c2)C(=O)N([C@@H](C)CO)C[C@@H](C)[C@@H](CN(C)C(=O)CC2CC2)O3)cc1` belongs “inactive”. Same read-out and setting: to `C[C@@H]1CN([C@H](C)CO)C(=O)c2cc(NC(=O)NC3CCCCC3)ccc2O[C@@H](C)CCCCO[C@H]1CN(C)Cc1ccncc1` belongs “inactive”; to `C[C@@H]1CN([C@@H](C)CO)C(=O)c2cccc(NC(=O)c3nc4ccccc4s3)c2O[C@H]1CN(C)Cc1ccc(C(F)(F)F)cc1`, “inactive”. Take `NCCCCCCNC(=O)[C@H]1C[C@H]2C(=O)N[C@@H](Cc3ccccc3)C(=O)N2[C@H]1c1cccc(OCCO)c1`: the cytotoxicity call is “inactive”. The same measure, in the same setting: to `COc1ccc(CN(C)C[C@H]2Oc3ccc(NS(=O)(=O)c4c(C)noc4C)cc3C(=O)N([C@H](C)CO)C[C@H]2C)cc1` belongs “inactive”; to `Cc1noc(C)c1NC(=O)Nc1ccc2c(c1)C(=O)N([C@H](C)CO)C[C@@H](C)[C@H](CN(C)C(=O)Nc1cccc3ccccc13)O2`, “inactive”; to `COc1ccc(CCc2nc3cc(-c4c(C)noc4C)ccc3n2C[C@H](C)N2CCOCC2)cc1Cl`, “inactive”. The same measure, in the same setting: to `c1ccc(Cn2c(-c3ccc(OC[C@H](C4CCNCC4)n4c(-c5ccccc5)nc5ccccc54)cc3)nc3ccccc32)cc1` belongs “active”. Still for that read-out and setting: to `O=C(CN1CCOCC1)N[C@H]1CC[C@H](CCn2cc(C3CC3)nn2)O[C@@H]1CO` belongs “inactive”. On to `C[C@@H]1CCCCO[C@H](CN(C)C(=O)c2ccccc2)[C@H](C)CN([C@@H](C)CO)C(=O)c2cc(NC(=O)Nc3ccccc3)ccc2O1`, for which the cytotoxicity call is “inactive”.

`C[C@@H]1CCCCO[C@H](CN(C)C(=O)Cc2ccccc2)[C@@H](C)CN([C@@H](C)CO)C(=O)c2cc(NC(=O)Nc3ccc(C(F)(F)F)cc3)ccc2O1`: the cytotoxicity call is “inactive”.

For `NNCCc1ccccc1.O=S(=O)(O)O`, the cytotoxicity call was “inactive”. Take `C[C@@H]1CN([C@@H](C)CO)C(=O)c2cc(NS(=O)(=O)c3cccs3)ccc2O[C@@H]1CN(C)S(=O)(=O)c1cccs1`: the cytotoxicity call is “inactive”.

Values taken from the antibiotic and cytotoxicity screens of Wong et al. (2023).
